# Measurements from paper PMC4336329 (PLoS ONE, 2015).
# Screen size: about 310,000 compounds; about 2,200 (0.71%) showed an effect of 50% or more. Effects have a minus sign here. The list shows a part of the results.
# Biological target: human ether-à-go-go-related gene (hERG) potassium channel (human, UniProt Q12809)
# Assay: primary screen, population patch clamp on CHO cells stably expressing hERG
# Sequence of human ether-à-go-go-related gene (hERG) potassium channel (Q12809 whole entry, looked up): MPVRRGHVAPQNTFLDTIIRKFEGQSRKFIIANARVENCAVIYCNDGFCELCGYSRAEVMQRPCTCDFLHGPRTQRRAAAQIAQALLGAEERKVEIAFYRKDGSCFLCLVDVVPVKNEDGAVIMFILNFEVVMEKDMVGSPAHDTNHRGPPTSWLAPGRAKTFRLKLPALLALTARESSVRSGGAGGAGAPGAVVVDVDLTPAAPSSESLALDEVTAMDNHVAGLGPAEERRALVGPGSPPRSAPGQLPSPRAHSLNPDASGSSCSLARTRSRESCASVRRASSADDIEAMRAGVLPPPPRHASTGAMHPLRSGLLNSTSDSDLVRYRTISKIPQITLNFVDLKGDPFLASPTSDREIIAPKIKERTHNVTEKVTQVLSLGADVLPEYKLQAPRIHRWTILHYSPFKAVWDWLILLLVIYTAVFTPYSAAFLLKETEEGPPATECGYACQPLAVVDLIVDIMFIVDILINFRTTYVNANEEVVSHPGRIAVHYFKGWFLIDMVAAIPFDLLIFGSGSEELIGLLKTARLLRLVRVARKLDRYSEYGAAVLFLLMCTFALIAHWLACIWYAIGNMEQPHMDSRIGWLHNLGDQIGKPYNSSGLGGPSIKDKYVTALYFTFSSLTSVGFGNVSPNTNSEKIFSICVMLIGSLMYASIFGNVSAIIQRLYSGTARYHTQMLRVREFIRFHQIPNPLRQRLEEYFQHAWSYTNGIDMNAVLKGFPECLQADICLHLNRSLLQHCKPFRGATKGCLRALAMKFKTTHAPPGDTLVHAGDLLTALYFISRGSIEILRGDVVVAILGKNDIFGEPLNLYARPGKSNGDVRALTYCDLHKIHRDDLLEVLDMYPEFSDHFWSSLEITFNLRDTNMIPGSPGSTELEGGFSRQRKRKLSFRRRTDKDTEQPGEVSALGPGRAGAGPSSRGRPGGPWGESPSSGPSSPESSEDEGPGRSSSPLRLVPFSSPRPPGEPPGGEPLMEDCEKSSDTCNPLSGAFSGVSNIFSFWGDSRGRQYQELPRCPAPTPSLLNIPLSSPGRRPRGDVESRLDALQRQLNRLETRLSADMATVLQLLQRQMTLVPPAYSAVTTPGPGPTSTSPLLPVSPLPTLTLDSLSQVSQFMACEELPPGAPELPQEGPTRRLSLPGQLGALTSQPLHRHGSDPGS
row,Structure (SMILES),"hERG current change (%, negative = inhibition) at 1uM [%]"
1,CC(=O)N1CCN(C(=O)COc2ccc(N(C)S(=O)(=O)c3cccs3)cc2)CC1,12.9
2,NNC(=O)CC(=O)NC1(Cc2ccc(O)cc2)CCCCC1,-0.984
3,CC(=O)Nc1ccc(NC(=O)C(C)N2CCN(S(=O)(=O)c3ccc(C)cc3)CC2)cc1 (stereo not shown),2.7
4,COc1cccc(-c2nc(CS(=O)(=O)CC(=O)N3CCc4ccccc43)c(C)o2)c1,14.3
5,COc1ccc(NC(=O)Cn2nnc(C(=O)NCc3ccco3)c2N)cc1,17.1
6,O=C1N=C(N2CCCCC2)SC1=C1CCCC1,5.7
7,O=Cc1cccc(OC(=O)Nc2ccccc2)c1,5.69
8,NS(=O)(=O)c1ccc(CCNC(=O)CCc2nc3sc4c(c3c(=O)[nH]2)CCCC4)cc1,13.8
9,CS(=O)(=O)c1cccc(S(=O)(=O)N2CCCCCC2)c1,21.2
10,CC(=O)c1sc(N/N=C/c2cccc([N+](=O)[O-])c2)nc1C,16.8
11,O=C(Nc1ccc(S(=O)(=O)Nc2ccccn2)cc1)c1cccc([N+](=O)[O-])c1,5.1
12,Cc1nc2ccc(Br)cn2c1C(=O)N/N=C\c1ccccc1[N+](=O)[O-],15.8
13,NC(=O)c1ccc(NC(=O)COC(=O)c2cc([N+](=O)[O-])ccc2N2CCOCC2)cc1,5.94
14,CC1(C)Cc2cccc(C(=O)NC3CCN(Cc4ccccc4)CC3)c2O1,1.5
15,COc1c(OC(C)=O)ccc(/C=C/c2ccc3cccc(OCc4ccccc4)c3n2)c1[N+](=O)[O-],18.7
16,Cc1cccc(-c2nnn(Cc3nnc(NC(=O)c4ccccc4)s3)n2)c1,5.74
17,Cc1cc(S(=O)(=O)NCC(C)C)ccc1OCC(=O)NC1CC1,7.56
18,O=C(CCCN1C(=O)/C(=C\c2cccs2)SC1=S)Nc1ccc(O)cc1,9.34
19,COc1cc(OC)c(NC(=O)c2ccc(Br)o2)cc1Cl,0.227
20,CCOC(=O)CSc1n[nH]c(-c2cccnc2)n1,11
21,CC(C)(C)C1C/C(=C/c2ccco2)C(=O)/C(=C/c2ccco2)C1 (stereo not shown),-1.88
22,Cc1nc2sc(C(c3cccs3)N3CCN(c4ccccc4)CC3)c(O)n2n1 (stereo not shown),5.92

row,Structure (SMILES),"hERG current change (%, negative = inhibition) at 1uM [%]"
1,O=C(CCc1nc2ccccc2[nH]1)Nc1ccccc1,3.53
2,COc1ccc(-c2noc(-c3ccccc3Cl)n2)cc1OC,15.3
3,CN1CCN(c2oc(COc3ccc(-c4ccccc4)cc3)nc2C#N)CC1,3.72
4,COc1cccc(C2c3c(oc4ccccc4c3=O)C(=O)N2CCCN2CCOCC2)c1 (stereo not shown),3.27
5,CCOC(=O)c1ccc(CNC(=O)c2n[nH]c(=O)c3ccccc23)o1,14.7
6,CN(C)/C=N/c1nc2ncc(-c3ccc(Cl)cc3)c(/N=C/N(C)C)n2n1,13.5
7,Cc1cc(C(=O)N2CCN(CCc3ccccc3)CC2)no1,-0.319
8,COc1ccc(NC(=O)NCCCN2CCN(c3cc(C)ccc3C)CC2)cc1,-80.4
9,CCCc1cc(=O)[nH]c(SCC(=O)Nc2ccc3c(c2)CCC3)n1,20
10,NC(CSC12CC3CC(CC(C3)C1)C2)C(=O)O (stereo not shown),11
11,CCC(C)c1ccc(NC(=S)NCc2cccs2)cc1 (stereo not shown),5.77
12,O=S(=O)(c1cccc(Cl)c1)N1CN(CC2CCCO2)c2nc3ccccc3nc21 (stereo not shown),9.19
13,CCOC(=O)C1=C(C)NC(=O)NC1c1ccc(OCC(=O)OC)c(OC)c1 (stereo not shown),6.8
14,COc1cccc2cc(C(=O)NCc3ccc(C)cc3)c(=N)oc12,9.88
15,Cc1ccc2c(cnn2C(=O)CCC(=O)N2CCCCC2C)c1 (stereo not shown),10.7
16,CN(C)C(=S)NC1CCS(=O)(=O)C1 (stereo not shown),6.72
17,COc1ccc(N2C(=O)CC(N3CCN(S(=O)(=O)c4c(F)cccc4F)CC3)C2=O)cc1OC (stereo not shown),13.5
18,COC(=O)c1ccc(-c2nc(O)c3cnccn23)cc1,11.5
19,COc1cc(CNCc2ccccn2)ccc1OCc1ccc(Cl)cc1.Cl,-7.26
20,O=C(NN=C1CCCC1)c1n[nH]c2c1CCCC2,8.46
21,Nc1nonc1-n1nnc(C(=O)N/N=C/c2ccccn2)c1CNc1ccccc1,11.5
22,COCCCNC(=O)c1c(NC(=O)c2ccco2)n(Cc2ccccc2)c2nc3ccccc3nc12,13.7

row,Structure (SMILES),"hERG current change (%, negative = inhibition) at 1uM [%]"
1,CNS(=O)(=O)c1cccc(C(=O)OCC(=O)N2CC(C)OC(C)C2)c1 (stereo not shown),12
2,CC1CCN(CC(=O)Nc2ccc(N3CCCCCC3)cc2)CC1.O=C(O)C(=O)O,9.58
3,CCOc1cc(N2CCOCC2)c(OCC)cc1NC(=O)CN1C(=O)NC(CC(C)C)C1=O (stereo not shown),-12.7
4,COc1ccc(-c2nc(Cn3c(SCc4ccc(C)cc4)nc4ccncc43)c(C)o2)cc1OC,9.17
5,O=C(NCc1ccc(F)cc1)C1CCCN1S(=O)(=O)c1cccc2nsnc12 (stereo not shown),8.83
6,O=C(CCc1ccccc1)NN1C(=O)C2C3C=CC(C3)C2C1=O (stereo not shown),14
7,O=C(NC(O)C(=O)c1ccccc1)c1ccccn1 (stereo not shown),17.2
8,COc1ccc(OC)c(S(=O)(=O)NC2CCCCNC2=O)c1 (stereo not shown),13
9,Cn1c(CCCOc2ccc(Cl)cc2Cl)nnc1SCC(=O)Nc1ccc(F)c(Cl)c1,10.6
10,CCN1C(=O)[C@H]2[C@@H](c3ccc(-c4ccc(Cl)c(Cl)c4)cc3)N[C@@](CC(C)C)(C(=O)OC)[C@H]2C1=O.O=C(O)C(F)(F)F,11.6
11,COc1ccc(-n2c(SCC3CNC(=O)O3)nnc2-c2ccc(Cl)cc2)cc1 (stereo not shown),-11.6
12,NNC(=O)COc1ccccc1[N+](=O)[O-],34
13,Nc1nc(Nc2ccccc2Cl)cc(=O)[nH]1,9.88
14,Cc1ccc(S(=O)(=O)n2cc(-c3ccccc3)c(N)n2)cc1,0.171
15,COc1ccc(C(=O)C2CCN(C(=S)NCCc3ccccc3)CC2)cc1,3.98
16,COC(=O)C(Cc1ccccc1)NC(=O)CSc1nc(C)cc(=O)[nH]1 (stereo not shown),8.82
17,Cn1ncc(Cl)c1C(=O)N1CCN(c2ccccc2)CC1,13.5
18,Nc1ccc(SC(F)(F)F)cc1C(=O)c1ccccc1,7.74
19,N#CC1=C(N)Oc2c(c(=O)oc3ccccc23)C1c1ccc(OC(=O)N2CCOCC2)cc1 (stereo not shown),3.2
20,O=C(CNC(=O)C1CCCCC1)NCCCO,7.31
21,CCOc1ccccc1CN1CCN(Cc2cccc3nonc23)CC1CCO (stereo not shown),-50
22,Cc1cc(C)n2ncc(C(=O)NCc3ccccc3)c2n1,2.31

row,Structure (SMILES),"hERG current change (%, negative = inhibition) at 1uM [%]"
1,Cn1c(CNC(=O)c2ccco2)nnc1SCC(=O)Nc1ccc(Br)cc1F,-13.9
2,CCCCNC(=O)C1(NC(=O)Nc2ccc(C)cc2)CCCCC1,15.2
3,COc1ccc(NC(=O)CSc2nnc(C)n2C2CCCCC2)cc1,2.3
4,CCC(=O)Nc1cccc2c1C(=O)N(C)C2=O,7.02
5,N/C(Cc1ccc([N+](=O)[O-])cc1)=N\OC(=O)Cc1ccc(Cl)cc1,13.3
6,COc1ccc(-c2nnc(CSc3nc4ccccc4c(=O)n3CC(C)C)o2)cc1OC,12
7,COc1cc(C)ccc1OCCCCOc1ccccc1C(C)=O,11.6
8,COc1ccc(C(=O)Nc2ccccc2C(=O)NCc2cccnc2)cc1OC,-8.05
9,O=C(CSc1ncnc2scc(-c3ccc(F)cc3)c12)c1ccc2c(c1)OCCO2,13
10,O=C(Nc1ccccc1N1CCOCC1)c1cc2c(s1)CCCCC2,8.56
11,O=C(CN(C(=O)CNC(=O)c1cccs1)c1ccccc1F)NC1CCCCC1,16.3
12,Cc1cc(-c2csc3ncnc(N4CCN(C)CC4)c23)cc(C)c1C,-12
13,Cc1cc(C)c2nc(C(F)(F)F)nc(N3CCN(C(=O)c4ccco4)CC3)c2c1,1.46
14,Cl.NNCc1cccc(O)c1,8.09
15,COCCn1c(SC(C)C(=O)Nc2ncc(Cl)cc2Cl)nc2ccccc21 (stereo not shown),-3.16
16,Cc1c(Cl)cccc1NC(=O)CCC(=O)NNC(=O)c1ccccc1,9.01
17,CCOc1ccc(C(C(=O)NC2CCCC2)N(CCOC)C(=O)CNC(=O)c2ccco2)cc1 (stereo not shown),1.49
18,O=C(NC1CCCC1)c1ccc([N+](=O)[O-])s1,0.602
19,COc1ccc(S(=O)(=O)N(CCc2ccccc2)CC(=O)N2CCOCC2)cc1,-0.7
20,CC(=O)Nc1ccc(S(=O)(=O)NC(CC(=O)O)c2ccc(C)cc2)cc1 (stereo not shown),7.14
21,O=C(CSc1nnc(-c2cccc(S(=O)(=O)N3CCCCC3)c2)o1)c1ccc[nH]1,10.2
22,COc1cccc(CN(C)C(=O)c2ccc(Oc3ccccc3)cc2)c1OC,6.1
